{
  "source": "the supplement of paper PMC11417369",
  "note": "± gives the standard deviation of the averaged measurements. Some of the results follow.",
  "data": [
    {"test_system": "PfAP2-I AP2 domain 3 (GST-tagged)", "experiment": "gcPBM binding intensity (ln(normalized median fluorescence intensity)); higher = stronger DNA binding", "how_it_was_run": "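For binding intensity, the highest Masliner-normalised natural-log median intensity across replicate spots of either probe orientation was taken. Protein bound to the array was stained with Alexa488 anti-GST antibody and scanned at 488 nm. The protein, GST-tagged P. falciparum DNA-binding domains from E. coli at about 25 μg on average, had been applied for 1 h to an Agilent 4 × 180k array of primer-extended double-stranded 36-bp intergenic genomic probes and negative controls.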", "values": [
      {"sequence": "AAAATAAATATATTATCCACGTTGTATATATATATA [XGTACX_negctrl_site136]", "gcPBM binding intensity (ln)": "9.46 ± 0.38"},
      {"sequence": "CACATACAGATATATACACACAAATATAAATACACA [CACACA_site6512]", "gcPBM binding intensity (ln)": "7.86 ± 0.38"},
      {"sequence": "AATAAATATAAAAATGCACACACACTAATAAAAAAA [CACACA_site8201]", "gcPBM binding intensity (ln)": "8.67 ± 0.52"},
      {"sequence": "TTACTTATATGCATAGTGCAAATTTGGTAAATATCT", "gcPBM binding intensity (ln)": "10.3 ± 0.028"},
      {"sequence": "CAATTTATTATATATGTGCACATATAATTTTACAAA", "gcPBM binding intensity (ln)": "9.59 ± 0.24"},
      {"sequence": "TAATTATTTTTATTGTTGCACTAGTAAAATTTTAAG [GTGCAC_site9946]", "gcPBM binding intensity (ln)": "9.78 ± 0.22"},
      {"sequence": "TACATTTTAATATAAGCATGCCTTTAGTTTTTTTCT [TGCATGCA_site829]", "gcPBM binding intensity (ln)": "7.6 ± 1"},
      {"sequence": "AATACAAATATATATGCACACACATATACATACATA [CACACA_site8677]", "gcPBM binding intensity (ln)": "9.22 ± 0.057"},
      {"sequence": "TATTTATTGTGATACTTATATTATTTCATGATTAAT [CACACA_negctrl_site738]", "gcPBM binding intensity (ln)": "7.5 ± 0.59"},
      {"sequence": "ACTTTATTATATATTTGTACATATATTTTTAATTTC [XGTACX_site4144]", "gcPBM binding intensity (ln)": "8.06 ± 0.62"},
      {"sequence": "GTATATATGTATGTATGTACTTATAAAGTTGCATAT [XGTACX_site5616]", "gcPBM binding intensity (ln)": "7.99 ± 0.23"},
      {"sequence": "TCTACATCTGTATATAAACACACAACAAAAATGCTT [CACACA_site9271]", "gcPBM binding intensity (ln)": "7.79 ± 0.54"},
      {"sequence": "AATGTGTAGACACGCACACACAAAAAAATATTTATA [CACACA_site7384]", "gcPBM binding intensity (ln)": "7.78 ± 0.5"},
      {"sequence": "TTCTTACACAAAAAAATGAAATCAATCAAAAAAAAA [CACACA_negctrl_site869]", "gcPBM binding intensity (ln)": "7.67 ± 0.55"},
      {"sequence": "TATATATTTCAATAATGTACATATAATATATATATT [XGTACX_site4124]", "gcPBM binding intensity (ln)": "7.69 ± 0.42"},
      {"sequence": "GAAAATATATTTAAGATGCACTTTAAAAATGTACTT", "gcPBM binding intensity (ln)": "8.99 ± 0.54"},
      {"sequence": "AAGTAATCATCATAAAGTACTAAATTATATTGTCAA [XGTACX_site5841]", "gcPBM binding intensity (ln)": "7.5 ± 0.54"},
      {"sequence": "AAATTATATATAAAATGTACATATGTAGGTAATTTT [XGTACX_site5047]", "gcPBM binding intensity (ln)": "8.27 ± 0.39"},
      {"sequence": "ACATTCTGATGGTGATTATTAATTATTACAAAAATT [CACACA_negctrl_site283]", "gcPBM binding intensity (ln)": "7.5 ± 0.44"},
      {"sequence": "AAATATTACTCCTCAAGTACACATAAAAAAAAAATA [XGTACX_site2085]", "gcPBM binding intensity (ln)": "7.93 ± 0.25"},
      {"sequence": "TTTTATTTTCGATGATGTACATTAAATTATACAGTA [XGTACX_site6053]", "gcPBM binding intensity (ln)": "7.64 ± 0.45"},
      {"sequence": "TATTTTTTTTGATATTGTACTTTTTTATTATTTTTT [XGTACX_site566]", "gcPBM binding intensity (ln)": "7.72 ± 0.47"},
      {"sequence": "TAAAAATTTAAGAAAACATGCATCTAACATATATAT [TGCATGCA_site342]", "gcPBM binding intensity (ln)": "7.53 ± 0.71"},
      {"sequence": "AATATACAAAATAAATAAAATATATATATATATATA [CACACA_negctrl_site216]", "gcPBM binding intensity (ln)": "9.46 ± 0.42"},
      {"sequence": "AAGTAAAATAAGTATACACACATAAATATGTAAATA [CACACA_site6467]", "gcPBM binding intensity (ln)": "7.51 ± 0.48"},
      {"sequence": "TTGTTTTCACCAAATACACACAAGCATACACCCCAT [CACACA_site2717]", "gcPBM binding intensity (ln)": "8.7 ± 0.33"},
      {"sequence": "ATACATAAATTTATACGTACATATATAGATACATAA [XGTACX_site675]", "gcPBM binding intensity (ln)": "8.2 ± 0.4"},
      {"sequence": "TTACATGCTAAAATTTGTACATATATGATAAATATT [XGTACX_site2648]", "gcPBM binding intensity (ln)": "7.75 ± 0.43"},
      {"sequence": "TTATAATATAAAAAATGTACATTAAAAAAAAAGATT [XGTACX_site8950]", "gcPBM binding intensity (ln)": "8.11 ± 0.65"},
      {"sequence": "AAGTATCAAAAATAAAGTACATATTTTGTAGGCAGG [XGTACX_site1463]", "gcPBM binding intensity (ln)": "8.3 ± 0.52"},
      {"sequence": "CAAAAAATATATTTTTGTACTTATGTTTTTATTTTG [XGTACX_site5230]", "gcPBM binding intensity (ln)": "7.94 ± 0.099"},
      {"sequence": "TAGTATAATATGAACACACACACACCCACAAAAAAA [CACACA_site2009]", "gcPBM binding intensity (ln)": "8.46 ± 0.14"},
      {"sequence": "TGGATATATGTAAAAATTGCAAGAAAGATAAAAGGA [CACACA_negctrl_site64]", "gcPBM binding intensity (ln)": "8.59 ± 0.69"},
      {"sequence": "TCTATGAATTAATATGCATGTAACGTATTTATACTT [TGCATGCA_site669]", "gcPBM binding intensity (ln)": "7.67 ± 0.83"},
      {"sequence": "ATTATGATATATATATGTACATATATATAATATAAT [XGTACX_site259]", "gcPBM binding intensity (ln)": "7.78 ± 0.43"},
      {"sequence": "TTTTTTTTTTTCCTTACACACATATTTCATTTTATA [CACACA_site747]", "gcPBM binding intensity (ln)": "8.25 ± 0.71"},
      {"sequence": "TTTTTATTTTTTAGTAGTACACACTTTTTGAACCTT [XGTACX_site1091]", "gcPBM binding intensity (ln)": "8.355 ± 0.064"},
      {"sequence": "TTTTATATATATTATACACACAAGGAAAAAAAAAAA [CACACA_site3677]", "gcPBM binding intensity (ln)": "8.19 ± 0.64"},
      {"sequence": "AAAAAAAAAAAAAGTGCACACTTTTAATATAAATAT [CACACA_site3314]", "gcPBM binding intensity (ln)": "10 ± 0.35"},
      {"sequence": "TATAAAAGGAAACACACACACATATATATATATATA [CACACA_site939]", "gcPBM binding intensity (ln)": "9.47 ± 0.38"},
      {"sequence": "AAATGGGAAATTTCATGTACTCATTTACCCTTATTA [XGTACX_site4740]", "gcPBM binding intensity (ln)": "7.45 ± 0.6"},
      {"sequence": "ATCTGACAAAAGTGTACACATATATATATATATATA [CACACA_site4814]", "gcPBM binding intensity (ln)": "9.52 ± 0.35"},
      {"sequence": "CACATAATGAAAAATACACACATGTATATTTATAAA [CACACA_site2736]", "gcPBM binding intensity (ln)": "7.57 ± 0.49"},
      {"sequence": "TTGAAGTATAATAAAGTGCAAAATTATAATGATCTT [GTGCAC_site9639]", "gcPBM binding intensity (ln)": "10.135 ± 0.007"},
      {"sequence": "TGTTGGTATGTGAATGCATGCATATAAGTCTATCTG [TGCATGCA_site780]", "gcPBM binding intensity (ln)": "8.04 ± 0.73"},
      {"sequence": "AAGGGAAAAAAAAAAGCACACATACGTAAATATATA [CACACA_site7960]", "gcPBM binding intensity (ln)": "8.04 ± 0.26"},
      {"sequence": "AAAAGATAAAATTATGCACACATACGAATAATTTTA [CACACA_site8497]", "gcPBM binding intensity (ln)": 9.47},
      {"sequence": "TATTTCACACAGTATATATATATATATATATATATA [TGCATGCA_negctrl_site118]", "gcPBM binding intensity (ln)": "9.34 ± 0.99"},
      {"sequence": "AATATATTAAATATTACACACATACATTTAGTGGAA [CACACA_site8609]", "gcPBM binding intensity (ln)": "7.58 ± 0.5"},
      {"sequence": "TACTAAGAAAAGAACTGTACATAGAATATACCCAAG [XGTACX_site4757]", "gcPBM binding intensity (ln)": "7.7 ± 0.6"},
      {"sequence": "AATATCAAAAAAAAAAAAAAAAAAAAAAAAAAAAAA [CACACA_negctrl_site288]", "gcPBM binding intensity (ln)": "8.32 ± 0.96"},
      {"sequence": "ATGATAATTATTAAGGGTACATAAAAATATATCTAT [XGTACX_site8969]", "gcPBM binding intensity (ln)": "7.78 ± 0.48"},
      {"sequence": "ATTATTTAACATGTGGACACAAAAATTTAAGGGTTC [CACACA_negctrl_site1269]", "gcPBM binding intensity (ln)": "8.11 ± 0.48"},
      {"sequence": "TATAATTATTTTTTCACACATATGTATTTATATATA [CACACA_site4205]", "gcPBM binding intensity (ln)": "7.99 ± 0.43"},
      {"sequence": "AGATATATATATAGGTGTACTGGAATGAAATTGTTT [XGTACX_site8200]", "gcPBM binding intensity (ln)": "8.06 ± 0.64"},
      {"sequence": "ATACATATACACATTTGTACATATTCCTTTTTATCG [XGTACX_site1731]", "gcPBM binding intensity (ln)": "8.13 ± 0.35"},
      {"sequence": "TTATTTAAAATGAAAAGTACATATTACTTTCTCACA [XGTACX_site5043]", "gcPBM binding intensity (ln)": "7.71 ± 0.37"}
    ]}
  ]
}
